# Source: PubChem BioAssay AID485344 (National Center for Advancing Translational Sciences (NCATS), 2010)
# Out of some 340,000 compounds screened, about 6,900 (2%) were called active. Cut-off read from the data, not from the text of the source: active = inhibition above about 30%; inactive = below that, where a call was filed. The list shows a part of the results, in another mix than the full data. Where no call is shown, the source filed none.
# Target: D(2) dopamine receptor (Homo sapiens) (UniProt P14416)
# Sequence of UniProt P14416 (P14416 whole entry, looked up): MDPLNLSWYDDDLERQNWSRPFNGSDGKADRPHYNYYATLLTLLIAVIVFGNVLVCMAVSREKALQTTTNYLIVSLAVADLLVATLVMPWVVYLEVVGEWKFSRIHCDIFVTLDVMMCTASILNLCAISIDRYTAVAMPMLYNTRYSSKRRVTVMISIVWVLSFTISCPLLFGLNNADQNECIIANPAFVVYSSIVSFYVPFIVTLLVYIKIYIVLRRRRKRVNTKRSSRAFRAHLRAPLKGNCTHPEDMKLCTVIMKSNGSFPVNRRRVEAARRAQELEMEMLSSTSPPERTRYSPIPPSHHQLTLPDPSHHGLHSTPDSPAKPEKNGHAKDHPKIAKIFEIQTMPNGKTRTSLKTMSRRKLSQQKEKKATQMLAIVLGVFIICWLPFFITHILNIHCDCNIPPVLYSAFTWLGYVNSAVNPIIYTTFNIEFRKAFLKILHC
# Assay: HTS Assay for Allosteric Antagonists of the Human D2 Dopamine Receptor: Primary Screen for Antagonists; note: 0% is about no effect
# Conditions: HEK293 TREx D2 cells, calcium flux, dopamine EC80; at 10 µM; stronger effect = higher value
# How it was run: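 Overnight-induced (tetracycline, 30 C) HEK293 T-REx cells carrying force-coupled D2 receive a no-wash calcium dye, then compound, then EC80 dopamine at 180 s; signals are read kinetically throughout.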
row,Compound,inhibition
1,COc1ccccc1NC(=O)c1c(NCc2ccc(C)o2)sc2c1CCC(C)C2 (stereo not drawn),4.66%
2,COCCc1nn2c(=O)cc(COC(=O)COc3ccc(F)cc3)nc2s1,-4.9%
3,CCN1CCN(C(c2ccccc2)c2sc3nc(-c4ccco4)nn3c2O)CC1 (stereo not drawn),-22.9%
4,Cc1ccc(-c2csc(=Nc3ccccc3)n2Cc2ccc3c(c2)OCO3)cc1C,17%
5,COc1ccccc1C(=O)n1nc(-c2ccco2)nc1NCc1ccc(Cl)cc1,11.7%
6,CC1=CS(=O)(=O)CC1Sc1nc2ccccc2[nH]1 (stereo not drawn),active: 37.7%
7,CC(C(=O)Nc1cc(C(F)(F)F)ccc1Cl)n1nnc2sc3c(c2c1=O)CCCC3 (stereo not drawn),12.7%
8,COc1cccc(CNC(=O)c2nn(-c3ccccc3Cl)nc2CO)c1,8.62%
9,Cc1ccc2oc(-c3ccc(C)c(NC(=O)c4ccc(C(C)(C)C)cc4)c3)nc2c1,8.26%
10,CCOC(=O)CNC(=O)c1sc(NC(=O)/C=C/c2ccccc2)nc1C,active: 33.8%
11,c1csc(C2=NC(c3ccncc3)=Nc3ccccc3N2)c1,-25.6%
12,O=C(CSC1=Nc2ccccc2N=C(c2ccc(F)cc2)C1)NCc1ccccc1,5.29%
13,COc1ccc2nc(/N=C(\N)NC(=O)C(C)(C)C)nc(C)c2c1,active: 35.4%
14,CC1CCCN(Cc2cn3c(-c4cccc(Br)c4)nnc3s2)C1 (stereo not drawn),-13.7%
15,O=C(NCCc1ccc(Cl)cc1)c1ccc(Cn2c(=O)c3cccn3c3cccnc32)cc1,18.6%
16,Cc1ccc(CNc2nc3ccccc3c3nc(-c4cccc(C)c4)nn23)cc1,4.18%
17,COc1ccc(Cn2c(CNS(=O)(=O)c3ccc4c(c3)CCCC4)nc3cccnc32)cc1,12.8%
18,O=C(c1cnc(N2CCCCC2)c2ccccc12)N1CCN(c2ccccc2F)CC1,19.4%
19,CCCSc1oc(-c2cccs2)nc1S(=O)(=O)c1ccc(Cl)cc1,7.05%
20,COc1ccc(CNC(=O)CCc2c(C)nn(-c3ccc(N4CCCCC4)nn3)c2C)c(OC)c1,-9.04%
21,O=C(c1ccc2c(c1)OCCO2)N(Cc1cccnc1)c1nc2c(F)cccc2s1,-8.76%
22,Cc1cccc(-c2noc(CN(C(=O)c3ccccc3Cl)C(C)C)n2)c1,-7.35%
23,Cn1c(C(=O)NCCc2ccccc2)cc2c(=O)n3ccccc3nc21,26.9%
24,Cc1ccc(N2CC(NC(=O)c3ccc(S(=O)(=O)N4CCOCC4)cc3)CC2=O)cc1C (stereo not drawn),20%

row,Compound,inhibition
1,CN(C)CCCCOc1ccccc1-c1ccccc1,active: 70.6%
2,Cc1cccc(CNC(=O)C2CCN(c3nnc(-n4c(C)ccc4C)s3)CC2)c1,7.73%
3,Cc1cc2oc(=O)c(CC(=O)O)c(C)c2c2occ(-c3ccc(F)cc3)c12,-6.81%
4,COc1ccc(NS(=O)(=O)c2cc(Br)cc3c2N(C(C)=O)CC3)cc1,active: 62.8%
5,COc1ccc(C2C(=O)N(C3CCC(C)CC3)CC(=O)N2Cc2ccccc2Cl)cc1OC (stereo not drawn),-28.3%
6,CC(C)(C)c1ccccc1OCC(O)CN1CCN(c2ccccn2)CC1 (stereo not drawn),active: 62.4%
7,Cc1ccc(Sc2c(C)nn(C(=O)COc3ccc(F)cc3)c2C)cc1,-0.256%
8,O=C(NCCN1CCN(c2ccccc2)CC1)Nc1ccccc1Br,active: 76%
9,COc1cccc(C2c3c(oc4ccc(C)cc4c3=O)C(=O)N2CCCN2CCOCC2)c1OC (stereo not drawn),-14.7%
10,Cc1cccc(-c2noc(-c3cccnc3NCc3ccco3)n2)c1,18.7%
11,COc1ccc(-n2c(=O)c3c4c(sc3n(Cc3cc(C)ccc3C)c2=O)CN(C(C)=O)CC4)c(OC)c1,-17.9%
12,CCOC(=O)C1(Cc2ccccc2)CCN(Cc2cnn(-c3ccccc3)c2)CC1,active: 33.3%
13,CCCn1c2ccccc2c2cnn(CC(=O)N3CCC(C(=O)OCC)CC3)c(=O)c21,-11.4%
14,Cc1ccc(CNc2nc3ccccc3n3c(C)nnc23)cc1,12.9%
15,CC(=O)CC1(O)C(=O)N(Cc2ccccc2)c2ccccc21 (stereo not drawn),active: 61.4%
16,CN(c1ccccc1)S(=O)(=O)c1cccc(NC(=O)CN2CCc3ccccc3C2)c1,active: 32.8%
17,N#Cc1nc(/C=C/c2ccc(F)cc2)oc1N1CCN(c2ccccc2)CC1,4.07%
18,O=C(COC(=O)c1ccccc1SCC(=O)N1CCCC1)Nc1ccccc1C(F)(F)F,active: 31.1%
19,CC(C)c1ccc(OCC(=O)Nc2c(Cl)ccc3nsnc23)cc1,-4.13%
20,CC1CCN(c2nn3c(=O)c(C(=O)NCc4ccc(Cl)cc4)cnc3s2)CC1,-4.99%
21,Cc1noc(Cn2c(=O)c3ccccc3n(CC(=O)Nc3cccc(Cl)c3C)c2=O)n1,-4.55%
22,Cc1cc(C)nc(NC(=O)C(C)N2C(=O)c3ccccc3C2=O)n1 (stereo not drawn),active: 35.4%
23,CCOC(=O)c1ccc(NC(=O)CSc2c(C(C)C)cnc3c2c(=O)n(C)c(=O)n3C)cc1,9.95%
24,CCCS(=O)(=O)c1nc(S(=O)(=O)c2ccc(C)cc2)c(N(CC)CC)s1,-4.22%
